Sequences and labels used below:
B1: GBRAP_11_2836 (protein)
chain: KKEKLKKIAEKAKEVAKELEKLIASGNPSQEELEKLLKKVEELLKLAKELGDESLVKLAEIALEEVKEAIEDKENQIEHLENALAAVRVLEGQALLLADE
B2: GBRAP_11_2628 (protein)
chain: KKEILKEMAELAKKLAELVKKLLEEGVDNEELLKEIEETLKKIEELTKKYGTEADKTDVEVAKELFEEAKKDKENKEFYLEQLLAAARVLEGNYLLEIEE
B3: GBRAP_184_5088 (protein)
chain: KTLERLVEAETREELLAKVDEVIAEAKEEKADLVVEVRMPGLDVETALEIIERLGKAKKEGAFKNVTVGFAEAFTEEEADKILEKADKEGIKVVLALNEE
B4: GBRAP_11_2629 (protein)
chain: KKEILKKKAELAKKLAEKVEKLLKEGVDNEELLKEIEKLLKEIAELTEKYGTEADKSLVEVAKELFEEAKKDKENKEKYLKELLAAAKVLEGDYLLEIEE
B5: GBRAP_128_3543 (protein)
chain: SLEEARKEAEEVMEKIKNSSPEEAKKITKEFLEKLKTWTDEEVEAAVEVLIERLPELSAEKLEVLADTIREERGKFTPKKQELLADLEVEALNEAEELEE
B6: GBRAP_39_5649 (protein)
chain: DEEEEMELLVSYNIALAEKYMVEKNISEEELIEEGMKLLEEIAKEHPEIKELVEELIKLAKEGNEEQKLAAVGIALRYKEGAPIEEIKEDIEKLIAYFKK
B7: GBRAP_52_5948 (protein)
chain: ALEEALALLREALAAVLAGREEEARAILRELVARYDLETIRAAGEALAAELANADDAEHEAFVRLVDLLEEELIEAGVPEEDALALRGDIEAALAKAVAA
B8: GBRAP_160_4770 (protein)
chain: KEKLKKLKEEVKEIFDEYIALLKESEKEEAVTLVEGAVGEVLMAVMSSEAASEELEEKIAEIMDETIAEAKANADKDVAYFIALLKEAKEKILKLIEEEI
B9: GBRAP_11_2668 (protein)
chain: KKEALKEALELAREAAELAEKLIEEGVENEELLKELEEKLKKLEELAEKELDEAYKRDVKIARELFEKALEDEENAEEYMKLLLAALRVLAGNLELDLDE
B10: GBRAP_184_5022 (protein)
chain: MLLERTIKVENVEEAKEKLEELKEELKRLKADAVVYLEIKNPTKEILEEIAEKVGEIMESGAAKRLTVGIAAALTEEQIDFLVEKLSAAGARLVVALSEE
B11: GBRAP_160_4201 (protein)
chain: SEKVEKVIRLLREETERVIAEVPELSREEVANLADVEYGSVLMEAVELGIENDEILDTIADAADEIRRFLEENRDASVEEIKRGIREITERAIEEIKKIA
B12: GBRAP_11_2650 (protein)
chain: KKEVLEKAAKLAEEAAKTADKLIAEGVDNKELIEELTKKVEELKELVKKNASEALKKDVEVAVELLEEFLKDPENAEKYAKELRAALRVLEGNFLLEIEE
B13: GBRAP_160_4589 (protein)
chain: SEALEKMKKIVEEELEEAKEMIKGESAEQRAVIVRGATGAIVMELSELPEASDELLDKVLEIGDETAETILANPNITDEELEALLDEAIEKMKKAIEESL
B14: GBRAP_39_5679 (protein)
chain: EKEEEDEDTVSYLEGVAAKYLYTTGISEEEAFKRAKEILKKYAEEHPELKELLEELIEIAEEKGEEAKLALIGVAVLIEEGTPLEEIKEIIERVINYFKS
B15: GBRAP_160_4354 (protein)
chain: SETVERLIEEIREVTEEVIEELDTISVEEARIIADGRFGEVFMEAAEDENMSDEMEDVILDGRDRVLEFLEENKDASVEELKKGIREITEETIKRLKEIA
B16: GBRAP_184_5316 (protein)
chain: EVIHKVIEVSTVEEAREKLREVREEVKKTGKKYLVTIEIKNPTKELIKTIAEEIKKMKEEGLPVEFIVEIPEDVSEELMDFAIEEFDKAGAKLVVAIPDE
B17: GBRAP_137_3671 (protein)
chain: MIEVKIELEDGLAFAEVTVEGSKEELEKAAEIAEDIAGEIPNIAVSVKLTEDGKLEIDLFGTKEDIMAALKELAKRMNKTVEVTEYDLETGEVTKSTIKP
B18: GBRAP_184_5132 (protein)
chain: TLLERAVEAKTAEELIAKARAVVEEAAAAGARLVLSVFAEDLSVEDNIAVIRELGELKAAHPQIEAIIVDLPEVSEEDLDKLIEAADAAGVKLVAAIPDE
B19: GBRAP_160_3994 (protein)
chain: EEEKEKLFKEIKELLEEAYELMKGESPEERLAIARVTSGQILLTLEESGLVSDETIEEVDEILDEFVEWIAANPNASDEELKAKLEETFKKIKEVIEKNS

Over roughly 4,500 sequences, “median log2 fold change of GCK-ALFA target abundance (FLAG IP / Myc IP barcode read proportion)” has its median near 0.078; the lowest 2% begin near -0.6. The list shows a part of the results.

GABARAP, O95166, sequence (O95166 whole entry, the tested form may be a part): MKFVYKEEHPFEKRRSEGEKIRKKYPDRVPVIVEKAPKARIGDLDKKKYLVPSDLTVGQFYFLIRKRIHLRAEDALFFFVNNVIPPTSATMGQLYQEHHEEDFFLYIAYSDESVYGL

The assay has as its target GABARAP, O95166. Nature of the assay: median log2 fold change of GCK-ALFA target abundance (FLAG IP / Myc IP barcode read proportion) (log2 ratio); each designed protein is fused to an ALFA-tag nanobody in HEK293 cells to bring the named protein to FLAG-tagged glucokinase (GCK); Myc marks an untargeted standard; higher = target protein stabilised (more abundant). The conditions noted are these: target protein: 3xFLAG-MCP-GCK-ALFA reporter; HEK293 landing pad (RPLP). The gist of the method: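 An ALFA-nanobody-fused binder library was recombined into HEK293 landing-pad cells and induced with 2 μg mL^−1 doxycycline. Cells were transfected with a plasmid expressing a FLAG-tagged target and a Myc-tagged standard. After 48 h, lysates underwent anti-FLAG and anti-Myc immunoprecipitation, and circular RNA barcodes were reverse transcribed, amplified and sequenced. Target abundance is the per-binder median log2 ratio of FLAG to Myc barcode read proportions. Barcodes needed ≥10^−7 proportion in both replicates, binders ≥3 barcodes per replicate, and a 10^−6 pseudocount was added; the two replicates were pooled.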
Regarding B1, the “median log2 fold change” value was 0.179.
To B2 belongs 0.232; to B3, 0.163.
To B4 belongs 0.182.
To B5 belongs 0.18; to B6, 0.334.
B7: the “median log2 fold change” value was -0.127.
In the case of B8 it was 0.0562; in that of B9, 0.101; in that of B10, -0.0797.
To B11 belongs -0.204; to B12, 0.247; to B13, -0.067.
In the case of B14 it was 0.187; in that of B15, 0.0593.
Take B16: the “median log2 fold change” value was determined as 0.181.
In the case of B17 it was 0.0982; in that of B18, 0.00161.
Turning to B19, the “median log2 fold change” value is -0.13.
